Measured values reported in PubChem BioAssay AID1460 (National Center for Advancing Translational Sciences (NCATS), 2008).
Out of some 270,000 compounds screened, about 5,800 (2.1%) were called active. Inconclusive means that the source gave no clear call. Such entries were picked first, then a sample of the others. The call rests on the fitted dose curve; in most records, active means well fitted inhibition curve with a large enough effect; inconclusive means small, poorly fitted or top-dose-only effect; inactive means flat fitted curve, though single readings scatter. A potency beside an inconclusive call is a rough fit, not a confirmed value.

target: Microtubule-associated protein tau (Homo sapiens) (UniProt P10636); assay: qHTS for Inhibitors of Tau Fibril Formation, Thioflavin T Binding; conditions: recombinant tau K18 P301L, heparin-induced fibrillization, ThT fluorescence; series mostly up to 57.4 µM; further: nearly all actives have a fitted effect of over 55% in size
In short: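 ThT emission at 510 nm, taken 1 hr after adding 30 uM dye, quantifies aggregates formed when 20 uM heparin acts on human tau K18 P301L for 6 hr at 37 C.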
Potency means the concentration at half of the fitted maximal effect; tags describe the fitted curve by direction and shape.

Sequence of UniProt P10636 (P10636 whole entry, looked up): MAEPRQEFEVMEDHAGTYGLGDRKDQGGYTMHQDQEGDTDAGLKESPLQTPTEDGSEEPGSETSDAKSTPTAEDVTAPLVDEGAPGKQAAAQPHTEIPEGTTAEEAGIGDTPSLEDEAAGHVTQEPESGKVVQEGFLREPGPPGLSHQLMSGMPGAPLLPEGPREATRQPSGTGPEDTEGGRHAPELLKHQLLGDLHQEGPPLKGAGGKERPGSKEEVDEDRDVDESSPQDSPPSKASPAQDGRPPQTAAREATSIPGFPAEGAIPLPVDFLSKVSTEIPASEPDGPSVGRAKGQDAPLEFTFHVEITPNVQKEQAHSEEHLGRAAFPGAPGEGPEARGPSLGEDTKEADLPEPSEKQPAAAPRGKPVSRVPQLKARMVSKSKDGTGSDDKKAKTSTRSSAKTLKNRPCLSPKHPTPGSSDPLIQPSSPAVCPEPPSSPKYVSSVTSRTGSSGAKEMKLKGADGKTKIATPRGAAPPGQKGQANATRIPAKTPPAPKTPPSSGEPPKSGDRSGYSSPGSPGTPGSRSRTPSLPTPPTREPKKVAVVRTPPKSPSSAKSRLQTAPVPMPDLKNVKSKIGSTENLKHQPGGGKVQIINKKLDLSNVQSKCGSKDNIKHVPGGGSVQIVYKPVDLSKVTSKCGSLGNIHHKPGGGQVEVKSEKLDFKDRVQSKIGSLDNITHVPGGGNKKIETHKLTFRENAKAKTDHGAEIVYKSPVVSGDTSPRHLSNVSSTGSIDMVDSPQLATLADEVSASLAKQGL

SMILES	Potency
O=C1C=CC(=O)N1c1cccc(-c2ccccc2)c1	inactive
C=CCN1C(=O)/C(=C2/Sc3ccccc3N2CCCS(=O)(=O)O)SC1=S	inconclusive: 25.1 µM [inhibitor, single point]
CC(C)(C)c1ccc(NC(=O)c2ccsc2)cc1	inactive
Cc1ccc(S(=O)(=O)c2ccc(Cl)cc2)cc1S(=O)(=O)NC(C)C(=O)O (configuration not stated)	inactive
Cc1cc2nc(-c3ccc(SCC(=O)Nc4ccc(S(=O)(=O)NC5CC5)cc4)nc3)[nH]c2cc1C	inconclusive: 25.1 µM [activator, partial curve, poor fit]
COC(=O)c1cc(NC(=O)c2cccc(C(F)(F)F)c2)c(=O)oc1C/C=N/OCc1cccc(Cl)c1Cl	inconclusive: 20 µM [inhibitor, partial curve]
CCc1cc2c(cc3c(=O)n(CC(=O)NCCc4ccccc4)ncn32)s1	inconclusive: 25.1 µM [inhibitor, single point]
COc1cc([N+](=O)[O-])ccc1-c1ccc(/C=N/NC(=O)OC(C)(C)C)o1	inconclusive: 0.398 µM [inhibitor, full curve]
CCOc1ccc(S(=O)(=O)N/N=C(\C)c2ccc(OC)cc2OC)cc1	inactive
COc1ccc(NC(=O)C2CCCN(S(=O)(=O)c3c(C)[nH]c(=O)[nH]c3=O)C2)cc1Cl (configuration not stated)	inconclusive: 17.8 µM [inhibitor, single point]
O=C(Cc1ccc2c(c1)CCCC2)Nc1ccc2ccccc2c1	inconclusive: 25.1 µM [inhibitor, partial curve]
CC(C)NC(=O)c1ccccc1NC(=O)/C=C/c1cccc([N+](=O)[O-])c1	inactive
Cc1ccc(C(=O)Nc2ccc(S(=O)(=O)NCc3ccco3)cc2)cc1	inconclusive: 11.2 µM [inhibitor, partial curve, poor fit]
O=C(CSCc1ccc(F)cc1)Nc1nc2c(s1)CCCC2	inconclusive: 22.4 µM [inhibitor, partial curve]
Cc1[nH]c(=O)[nH]c(=O)c1S(=O)(=O)N1CCCC(C(=O)NCCC2=CCCCC2)C1 (configuration not stated)	inconclusive: 31.6 µM [inhibitor, single point]
Cc1ccc(C)c2[nH]c(=O)c(C(c3nnnn3Cc3ccccc3)N3CCc4ccccc4C3)cc12 (configuration not stated)	active: 22.4 µM
COc1cc(C2C(C(C)=O)=C(O)C(=O)N2c2ccc(Br)cn2)ccc1O (configuration not stated)	inconclusive: 15.8 µM [inhibitor, partial curve]
Nc1nc(Nc2ccccc2)nc(N2CCOCC2)c1[N+](=O)[O-]	inconclusive: 17.8 µM [inhibitor, partial curve]
O=c1c(-c2ccco2)[n+]([O-])c2ccccc2n1OCc1ccccc1[N+](=O)[O-]	inconclusive: 22.4 µM [inhibitor, single point]
COc1ccc(Nc2oc(/C=C/c3ccc(OC)c(OC)c3)nc2C#N)cc1	inconclusive: 4.47 µM [inhibitor, full curve]
Cc1ccccc1OCC(=O)NN1Cc2ccccc2C1=N	inactive
CCOc1ccc(NC(=O)N(CCN(C)C)C(C)c2cccnc2)cc1 (configuration not stated)	inconclusive: 1.78 µM [inhibitor, partial curve]
CCCc1nc(SCC(=O)Nc2nc3c(s2)CCCC3)c2ccccc2n1	inconclusive: 28.2 µM [inhibitor, partial curve, poor fit]
CCOc1ccc2nc(N3CCCC(C(=O)NCc4ccccc4OC)C3)sc2c1 (configuration not stated)	inconclusive: 17.8 µM [inhibitor, single point]

SMILES	Potency
COc1ccc(CCNc2oc(-c3ccccc3OC)nc2C#N)cc1	inconclusive: 31.6 µM [inhibitor, single point]
COc1cc(C2C(C(=O)Nc3ccccc3)=C(C)Nc3nnnn32)cc(OC)c1OC (configuration not stated)	inactive
COc1ccc(-c2noc(CSc3nc(N)cc(=O)[nH]3)n2)cc1OC	inactive
COc1cccc(NC(=S)NN=C2CCCCCC2)c1	inconclusive: 17.8 µM [inhibitor, partial curve]
Cc1nnc2c3ccccc3nc(Nc3cccc(O)c3)n12	inactive
CCOC(=O)c1cc(C(=O)Nc2cccc(C)c2)nn1C	inconclusive: 20 µM [inhibitor, single point]
COc1ccc(CC(=O)NCc2nnc(SCC(=O)c3ccc(OC)cc3)n2C)cc1	inactive
CNc1cc([N+](=O)[O-])ccc1OCc1ccccc1	active: 11.2 µM
Cc1ccc(-c2cn(-c3ccc(Cl)cc3)c(S(=O)(=O)CC(=O)Nc3ccccc3)n2)cc1	inactive
Cc1ccc(N2C(=O)c3ccc(C(=O)N4CCN(c5cccc(C)c5C)CC4)cc3C2=O)cc1	inactive
COc1ccc(NC(=O)CC2C(=O)N(c3cccc(OC)c3)C(=O)N2Cc2ccc3c(c2)OCO3)cc1 (configuration not stated)	inactive
CCCS(=O)(=O)N1CCN(c2cc3c(cc2[N+](=O)[O-])n(C)c(=O)n3C)CC1	inconclusive: 35.5 µM [inhibitor, partial curve, poor fit]
CC(/C=N/Nc1nc(C)cc(=O)[nH]1)=C\c1ccccc1	inconclusive: 3.98 µM [inhibitor, partial curve]
COc1ccccc1NC(=S)c1ccccc1	inactive
Cc1cccc(C)c1Nc1c(-c2ccc(O)cc2)nc2sccn12	inconclusive: 28.2 µM [inhibitor, partial curve]
O=c1oc2ccccc2cc1-c1cn2cc(Cc3ccc(Br)cc3)sc2n1	inactive
COc1cccc(-c2ccc(SCC(=O)c3ccccc3)nn2)c1	inconclusive: 15.8 µM [inhibitor, partial curve]
COc1ccc(/C=N/Nc2nc(N3CCCCC3)nc(N3CCCCC3)n2)cc1[N+](=O)[O-]	inconclusive: 20 µM [inhibitor, partial curve]
CC(=O)Nc1ccc(S(=O)(=O)N(C2=NCC(C)S2)c2ccccc2)cc1 (configuration not stated)	inactive
C=CCOC(=O)C1=C[C@@H](C2CCCCC2)C[C@@H](OCc2ccc(CO)cc2)O1	inconclusive: 35.5 µM [inhibitor, single point]
CC(C)C(C(=O)O)N1C(=O)/C(=C/C=C/c2ccco2)SC1=S (configuration not stated)	active: 12.6 µM
Cc1cc(C)cc(-n2ccn(Cc3ccc(F)cc3)c(=O)c2=O)c1	inconclusive: 14.1 µM [inhibitor, partial curve]
COc1ccc(CCNC(=O)CN(C)S(=O)(=O)c2ccc(Br)s2)cc1OC	inactive
COC(=O)CCC(=O)OC1(C)C(=O)C=C2C=C(C3CC3)N(c3cccc(C#N)c3)C=C2C1=O (configuration not stated)	inconclusive: 17.8 µM [inhibitor, single point]

SMILES	Potency
CCOC(=O)c1ccc(Nc2ncnc3ccc(C)cc23)cc1	inactive
Fc1ccc(Br)cc1C1C=C(c2ccc(Br)cc2)Nc2nnnn21 (configuration not stated)	inactive
Cc1ccc(-n2c(SCC(N)=O)nc3c(c2=O)C2(CCCC2)Cc2ccccc2-3)cc1	inconclusive: 14.1 µM [inhibitor, partial curve, poor fit]
O=C1/C(=C/c2ccco2)CCc2ccccc21	inconclusive: 17.8 µM [inhibitor, partial curve]
CCOc1cccc(C(=O)Nc2cc(-c3nn4c(C)nnc4s3)ccc2C)c1	inactive
CCCCCCCCCCCCCCC[C@@H](O)[C@H](CO)NC(=O)CCCCCCC	inactive
C#CCOc1nc(Nc2cccc([N+](=O)[O-])c2)nc(OCC#C)n1	inconclusive: 35.5 µM [inhibitor, partial curve, poor fit]
CCc1c(C)[nH]c2ccc(OC)cc2c1=S	inconclusive: 35.5 µM [inhibitor, partial curve]
O=CN/C=C/c1cc(F)cc(F)c1F	inactive
COc1ccc(S(=O)(=O)c2nnn(-c3ccc(C)c(Cl)c3)c2C)cc1	inactive
CC(=O)c1ccc(N2CCN(C(=O)C3CCC3)CC2)cc1	inconclusive: 15.8 µM [inhibitor, partial curve]
COc1cc(N/N=C(\C)c2ccc(O)c(C)c2)nc(-c2ccccc2)n1	inconclusive: 7.94 µM [inhibitor, partial curve]
O=[N+]([O-])c1ccc(NCc2ccc3c(c2)OCO3)cc1	inconclusive: 4.47 µM [inhibitor, full curve]
NNC(=O)COc1cccc(C(F)(F)F)c1	inactive
CCOC(=O)c1c(-c2ccc(-c3ccccc3)cc2)csc1NC(=O)CCN1CCOCC1	inconclusive: 5.62 µM [inhibitor, full curve]
O=C(O)c1cccc(N=NN2CCOCC2)c1	inconclusive: 17.8 µM [inhibitor, partial curve]
O=C1CN(C(=O)c2ccc(Br)o2)C(c2ccc(F)cc2)c2cc(Cl)ccc2N1 (configuration not stated)	inactive
COC(=O)c1ccc(C(=O)NN)cc1	inconclusive: 15.8 µM [inhibitor, partial curve, poor fit]
CN(C)/C=C/C(=O)c1ccc(Cl)cc1Cl	inactive
CCOC(=O)C1CCCN(C(=O)Cc2ccc(C)cc2)C1 (configuration not stated)	inactive
O=C(Nc1ccc2c(c1)nc1n2CCN(Cc2ccccc2)C1)c1cccs1	inconclusive: 39.8 µM [inhibitor, partial curve]
CC1=C(CC/C(C)=N/NC(N)=S)C(C)(C)CCC1	inconclusive: 8.91 µM [inhibitor, partial curve]
Cc1ccccc1NCC(=O)N/N=C/C(Br)=C/c1ccccc1	inconclusive: 39.8 µM [inhibitor, single point]
CCS(=O)(=O)N1CCN(c2cnn(-c3ccccc3)c(=O)c2Cl)CC1	inconclusive: 0.316 µM [activator, full curve, poor fit]
